Laboratory results reported in the supplement of paper PMC11876631.
Where a chain is given by its changes, count along the chain named. Names and notes keep the numbering of the source. ± gives the standard deviation of the averaged measurements. Laboratory Escherichia coli strains with one amino-acid change in an essential protein, pooled on minimal glucose agar with carbenicillin or gentamicin at twice the control MIC (plus kanamycin and chloramphenicol for the plasmids), 48 h. Fold change of barcode share against drug-free plates; higher = less susceptible. Active = above 20 in both replicates (the paper's putatively resistant). '<' = one read or none on drug, '>' = one read or none on a drug-free plate. Shares are relative, so most strains fall below 1 when a few take over. Listed are strains with at least 15 reads on both drug-free plates, and hits; most hits rest on fewer reference reads. Replicate rank correlation about 0.5. Edits are read from barcodes.

B1: glnS F52W (protein)
chain: MSEAEARPTNFIRQIIDEDLASGKHTTVHTRFPPEPNGYLHIGHAKSICLNWGIAQDYKGQCNLRFDDTNPVKEDIEYVESIKNDVEWLGFHWSGNVRYSSDYFDQLHAYAIELINKGLAYVDELTPEQIREYRGTLTQPGKNSPYRDRSVEENLALFEKMRAGGFEEGKACLRAKIDMASPFIVMRDPVLYRIKFAEHHQTGNKWCIYPMYDFTHCISDALEGITHSLCTLEFQDNRRLYDWVLDNITIPVHPRQYEFSRLNLEYTVMSKRKLNLLVTDKHVEGWDDPRMPTISGLRRRGYTAASIREFCKRIGVTKQDNTIEMASLESCIREDLNENAPRAMAVIDPVKLVIENYQGEGEMVTMPNHPNKPEMGSRQVPFSGEIWIDRADFREEANKQYKRLVLGKEVRLRNAYVIKAERVEKDAEGNITTIFCTYDADTLSKDPADGRKVKGVIHWVSAAHALPVEIRLYDRLFSVPNPGAADDFLSVINPESLVIKQGFAEPSLKDAVAGKAFQFEREGYFCLDSRHSTAEKPVFNRTVGLRDTWAKVGE
B2: glnS I457Q (protein)
chain: B1 chain with W52F, I457Q
B3: glnS I457W (protein)
chain: B1 chain with W52F, I457W
B4: glnS F158W (protein)
chain: B1 chain with W52F, F158W
B5: glnS L277P (protein)
chain: B1 chain with W52F, L277P
B6: glnS I457A (protein)
chain: B1 chain with W52F, I457A
B7: glnS L277A (protein)
chain: B1 chain with W52F, L277A
B8: glnS I434A (protein)
chain: B1 chain with W52F, I434A
B9: glnS L277Q (protein)
chain: B1 chain with W52F, L277Q

The proteins below were run against Escherichia coli (laboratory strain) (assay: barcode share on antibiotic plates over drug-free plates; higher = less susceptible). Settings: antibiotic: carbenicillin; 2× MIC (3.1 µg/mL).
Method: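 A pool of E. coli strains, each edited to carry one amino-acid change in an essential protein, was grown for 48 h on minimal glucose agar with or without antibiotic; strain barcodes were sequenced; mean of two replicates.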

Protein | fold change of barcode share
B1 | 0.306 ± 0.052
B2 | 0.644 ± 0.52
B3 | 0.325 ± 0.095
B4 | 0.184 ± 0.023
B5 | 0.582 ± 0.1
B6 | 0.402 ± 0.14
B7 | 0.216 ± 0.018
B8 | 0.344 ± 0.12
B9 | 0.29 ± 0.056

Same assay, conditions: antibiotic: gentamicin; 2× MIC (MIC 0.45 µg/mL)

Protein | fold change of barcode share
B1 | 0.0233 ± 0.013
B2 | 0.0084 ± 0.0011
B3 | < 0.0137
B4 | < 0.0126
B5 | < 0.00772
B6 | 0.00466 ± 0.0038
B7 | 0.00571 ± 0.0028
B8 | < 0.00556
B9 | < 0.0093
